Laboratory results reported in the antibiotic and cytotoxicity screens of Wong et al. (2023).
The list shows a part of the results.

Assays:
HSkMC = human skeletal muscle cells; assay: cytotoxicity call (relative viability < 0.9); settings: 10 µM
HepG2 = assay: cytotoxicity call (relative viability < 0.9); settings: 10 µM
S. aureus RN4220 = assay: growth inhibition call (relative growth <= 0.2); settings: 50 µM

SMILES | cytotoxicity call (HSkMC) | cytotoxicity call (HepG2) | growth inhibition call (S. aureus RN4220)
COc1ccc(C#Cc2ccc3c(c2)[C@]2(C(=O)N3)[C@H](c3ccc(O)cc3)N3[C@H](c4ccccc4)[C@H](c4ccccc4)OC(=O)[C@H]3[C@@H]2C(=O)N2CCCCCCC2)cc1 | inactive | inactive | inactive
C[C@@H]1CCCCO[C@@H](CN(C)C(=O)Cc2ccccc2)[C@@H](C)CN([C@@H](C)CO)C(=O)c2cc(NC(=O)CCC(F)(F)F)ccc2O1 | inactive | inactive | inactive
CC(C)NC(=O)N(C)C[C@H]1Oc2ccc(NC(=O)Cn3cnnn3)cc2C(=O)N([C@@H](C)CO)C[C@@H]1C | inactive | inactive | inactive
C[C@H]1CN([C@@H](C)CO)S(=O)(=O)c2ccc(C#Cc3cccc(F)c3)cc2O[C@H]1CN(C)C(=O)CN1CCOCC1 | inactive | inactive | inactive
C[C@@H]1CCCCO[C@H](CN(C)S(=O)(=O)c2cn(C)cn2)[C@@H](C)CN([C@H](C)CO)C(=O)c2cc(NS(=O)(=O)c3ccc(F)cc3)ccc2O1 | inactive | inactive | inactive
C[C@@H]1CCCCO[C@H](CN(C)Cc2ccccc2)[C@H](C)CN([C@H](C)CO)C(=O)c2cc(NS(=O)(=O)c3ccc(Cl)cc3)ccc2O1 | inactive | active | inactive
Oc1ccc([C@@H]2C=CCC2)cc1 | inactive | inactive | inactive
CC(=O)NC1=NC(=O)CS1 | inactive | inactive | inactive
COc1ccc(S(=O)(=O)Nc2ccc3c(c2)C(=O)N([C@@H](C)CO)C[C@@H](C)[C@@H](CN(C)C(=O)Nc2c(C)noc2C)OCCCC[C@@H](C)O3)cc1 | inactive | inactive | inactive
CC(C)(C)[S@](=O)N1Cc2cc(C(=O)N3CCCCC3)nc(-c3cccc(-c4ccc(C#N)cc4)c3)c2[C@@H]1CCO | inactive | inactive | inactive
COc1ccc(C#Cc2ccc([C@@H]3[C@@H](CO)N4CCCCN(S(=O)(=O)c5cn(C)cn5)C[C@@H]34)cc2)cc1 | active | inactive | inactive
COc1ccc(NC(=O)N(C)C[C@@H]2Oc3c(NS(=O)(=O)c4cn(C)cn4)cccc3C(=O)N([C@H](C)CO)C[C@H]2C)cc1 | inactive | inactive | inactive
C[C@@H]1CN([C@@H](C)CO)C(=O)c2cccc(NC(=O)Nc3ccc(F)cc3)c2O[C@H]1CN(C)Cc1ccc(C(=O)Nc2ccccc2N)cc1 | inactive | inactive | inactive
CSc1cnc2c(=O)[nH]c(=O)n(C)c2n1 | inactive | inactive | inactive
O=C(NCc1ccccc1)OCCO | inactive | inactive | inactive
C[C@@H]1CCCCO[C@@H](CN(C)S(=O)(=O)c2ccccc2)[C@@H](C)CN([C@H](C)CO)C(=O)c2cc(NC(=O)CCC(F)(F)F)ccc2O1 | inactive | inactive | inactive
COc1ccc(S(=O)(=O)Nc2ccc3c(c2)C(=O)N([C@@H](C)CO)C[C@@H](C)[C@H](CN(C)S(=O)(=O)c2cn(C)cn2)O3)cc1 | inactive | inactive | inactive
C[C@H](CO)N1C[C@H](C)[C@H](CN(C)C(=O)c2cccc(F)c2)Oc2cc(C#CC3CC3)ccc2S1(=O)=O | inactive | inactive | inactive
NC(=O)NCC#Cc1ccc2c(c1)[C@]1(C(=O)N2)[C@H](c2ccccc2OCCO)N2[C@H](c3ccccc3)[C@H](c3ccccc3)OC(=O)[C@H]2[C@@H]1C(=O)N1CCCCCCC1 | inactive | inactive | inactive
CO[C@@H]1CN(C)C(=O)c2cc(NS(=O)(=O)c3cn(C)cn3)ccc2OC[C@H](C)N(Cc2cccc(F)c2)C[C@@H]1C | inactive | inactive | inactive
Cc1cccc(S(=O)(=O)N2C[C@H](O)COC[C@@H]3O[C@H](CC(=O)N4CCN(C)CC4)CC[C@H]32)c1 | inactive | inactive | inactive
Cc1noc(C)c1NC(=O)Nc1cccc2c1O[C@@H](CN(C)S(C)(=O)=O)[C@@H](C)CN([C@H](C)CO)C2=O | inactive | inactive | inactive
NC(=O)OCC(COC(N)=O)c1ccccc1 | inactive | inactive | inactive
CO[C@H]1CN(C)C(=O)c2ccc(NS(=O)(=O)c3ccccc3)cc2OC[C@@H](C)N(C(=O)NC(C)C)C[C@@H]1C | inactive | inactive | inactive
C[C@@H]1CN([C@@H](C)CO)C(=O)c2cccc(NS(=O)(=O)c3ccccc3)c2O[C@@H]1CN(C)S(=O)(=O)c1cccs1 | inactive | inactive | inactive
C[C@@H]1CN([C@H](C)CO)C(=O)Cc2cc(NC(=O)Nc3ccc4c(c3)OCO4)ccc2O[C@H]1CN(C)C(=O)Nc1cccc2ccccc12 | inactive | inactive | inactive
C[C@H](NC(=O)N(C)C[C@H]1OCc2ccccc2-c2c(n(C)c3ccccc23)C(=O)N([C@@H](C)CO)C[C@H]1C)c1ccccc1 | inactive | inactive | inactive
C=CCNC(=O)[C@H]1[C@@H]2C(=O)O[C@@H](c3ccccc3)[C@@H](c3ccccc3)N2[C@@H](c2ccc(O)cc2)[C@]12C(=O)N(C(=O)OCCOC)c1ccc(C#CC3(O)CCCCCC3)cc12 | inactive | inactive | inactive
